{"source": "PubChem BioAssay AID540317", "about": "(National Center for Advancing Translational Sciences (NCATS), 2011)", "note": "About 2,200 (0.56%) of roughly 390,000 compounds were called active. This list was built around the results that the source calls inconclusive (neither active nor inactive); the mix of calls is not that of the screen. Calls come from the whole dose curve; as a rule, active = well fitted inhibition curve with a large enough effect; inconclusive = small, poorly fitted or top-dose-only effect; inactive = no such curve, though single readings can be large or run the other way. Potencies of inconclusive entries are doubtful fits and often do not repeat. Potency is the fitted concentration of half-maximal effect; tags give direction and shape of the fitted curve."}
{"target": "Chromobox protein homolog 1 (Homo sapiens) (UniProt P83916)", "sequence (P83916 whole entry, looked up)": "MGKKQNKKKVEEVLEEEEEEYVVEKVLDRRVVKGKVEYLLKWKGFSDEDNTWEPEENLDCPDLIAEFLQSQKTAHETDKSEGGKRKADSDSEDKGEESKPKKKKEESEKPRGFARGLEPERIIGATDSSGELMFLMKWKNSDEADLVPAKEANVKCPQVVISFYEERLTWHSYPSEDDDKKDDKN", "assay": "HTS for Inhibitors of HP1-beta Chromodomain Interactions with Methylated Histone Tails; note: nearly all actives have a fitted effect of over 70% in size", "conditions": "AlphaScreen HP1-beta / biotin-H3K9me3 peptide binding; series mostly up to 114 µM; activity change, negative = inhibition: at the top concentration", "in_short": "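HP1-beta protein (50 nM final) preincubated 30 min at room temperature with biotinylated H3(1-18)K9me3 peptide (50 nM) in PBS pH 7.4, 0.01% Tween-20, then compound added for 30 min. AlphaScreen streptavidin donor/nickel chelate acceptor beads (10 ug/mL final), 30 min dark, luminescence read.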"}
{"molecule": "O=C(OCC(=O)N1CCC(c2ccccc2)=N1)c1ccc([N+](=O)[O-])s1", "Potency": "inconclusive: 31.6 µM [inhibitor, partial curve]"}
{"molecule": "O=C(c1ccc([N+](=O)[O-])cc1)N1CCN(Cc2ccccc2)CC1", "activity change, negative = inhibition": "inactive: 16.9%"}
{"molecule": "Cc1ccccc1NC(=S)N/N=C/c1ccc(O)cc1O", "Potency": "inconclusive: 39.8 µM [inhibitor, partial curve]"}
{"molecule": "CC(=O)Nc1sc(N/N=C\\c2ccccc2F)nc1-c1cccs1", "Potency": "inconclusive: 70.8 µM [inhibitor, single point]"}
{"molecule": "Cc1nc(SCC(=O)c2cccc([N+](=O)[O-])c2)n[nH]1", "Potency": "inconclusive: 70.8 µM [inhibitor, single point]"}
{"molecule": "O=[N+]([O-])c1ncc(Br)cc1Nc1ccccc1", "Potency": "inconclusive: 20 µM [inhibitor, partial curve, poor fit]"}
{"molecule": "c1ccc2c(c1)CCN(c1nc(CN3CCOCC3)nc3sc4c(c13)CCCC4)C2", "Potency": "inconclusive: 17.8 µM [inhibitor, partial curve, poor fit]"}
{"molecule": "Cc1ccc(S(=O)(=O)c2nc(-c3ccco3)oc2SCC(N)=O)cc1", "activity change, negative = inhibition": "inactive: -24.8%"}
{"molecule": "COCCNC(=O)/C(C#N)=C/c1ccc(SC)cc1", "Potency": "inconclusive: 89.1 µM [inhibitor, partial curve, poor fit]"}
{"molecule": "Nc1cc([N+](=O)[O-])cc2oc(-c3ccccc3)cc12", "Potency": "inconclusive: 14.1 µM [inhibitor, full curve]"}
{"molecule": "Cc1ccc(C(=O)C(C)OC(=O)Cn2c(C)csc2=O)cc1", "note": "(centres undefined)", "activity change, negative = inhibition": "inactive: 17.8%"}
{"molecule": "C=CCOc1c(OC)cc(/C=N/Nc2cccc(C(=O)O)c2)c(Br)c1Br", "Potency": "inconclusive: 0.631 µM [inhibitor, full curve, poor fit]"}
{"molecule": "COc1cccc(NC(=O)c2nnn(CC(=O)Nc3cc(C)cc(C)c3)c2N)c1", "activity change, negative = inhibition": "inactive: 8.01%"}
{"molecule": "COc1ccc(N=c2cc(-c3ccc(O)cc3)oc3ccccc23)cc1", "Potency": "inconclusive: 44.7 µM [inhibitor, partial curve]"}
{"molecule": "CN(C)CCCN(C(=O)COc1ccc(Cl)cc1)c1nc2ccc(F)cc2s1", "activity change, negative = inhibition": "inactive: 39.9%"}
{"molecule": "CCN(CC)c1ccc(/C=C2/C(=O)c3ccc(C(=O)O)cc3C2=O)cc1", "Potency": "active: 35.5 µM"}
{"molecule": "CC(=O)Nc1ccc(SCC(=O)N(C)CC(=O)Nc2ccccc2Cl)cc1", "activity change, negative = inhibition": "inactive: 30.1%"}
{"molecule": "CCN(Cc1ccccc1)C(=O)C1CCN(Cc2ccc(SC)cc2)CC1", "Potency": "inconclusive: 56.2 µM [inhibitor, single point]"}
{"molecule": "C[C@H]1CN([C@@H](C)CO)C(=O)c2cccc(NS(=O)(=O)c3cn(C)cn3)c2O[C@H]1CN(C)S(C)(=O)=O", "activity change, negative = inhibition": "inactive: 88.2%"}
{"molecule": "[O-]/[N+](=N\\Nc1ccc(Cl)cc1)c1ccccc1", "Potency": "inconclusive: 50.1 µM [inhibitor, partial curve]"}
{"molecule": "CCOC(=O)C1CCN(C(=O)/C=C/c2cccs2)CC1", "Potency": "inconclusive: 3.55 µM [inhibitor, partial curve, poor fit]"}
{"molecule": "CCC(C)NC(=O)Cn1nc(Cc2ccncc2)c2ccccc2c1=O", "note": "(centres undefined)", "activity change, negative = inhibition": "inactive: 23%"}
{"molecule": "CCn1cc(C(=O)OC)c(=O)c2ccc(C)nc21", "activity change, negative = inhibition": "inactive: 23.3%"}
{"molecule": "O=C(O)CCCCCN1C(=O)/C(=C\\c2ccc(-c3ccc(Cl)cc3)o2)SC1=S", "Potency": "active: 39.8 µM"}
{"molecule": "COC(=O)c1cccc(NC2CC(=O)N(c3ccc(OC)c(OC)c3)C2=O)c1", "note": "(centres undefined)", "activity change, negative = inhibition": "inactive: 13.5%"}
{"molecule": "COc1cc(C(C)=O)ccc1OCCCN1CCC(Cc2ccccc2)CC1", "Potency": "inconclusive: 44.7 µM [inhibitor, partial curve, poor fit]"}
{"molecule": "COc1ccc(NC(=S)Nc2ncccc2C)cc1OC", "Potency": "inconclusive: 56.2 µM [inhibitor, single point]"}
{"molecule": "Cc1cc(NS(=O)(=O)c2ccc(NS(=O)(=O)c3ccc(CC(C)C)cc3)cc2)nc(C)n1", "activity change, negative = inhibition": "inactive: 49.4%"}
{"molecule": "N#CC1=C2SCN(Cc3ccco3)CN2C(=O)CC1c1ccc(Cl)cc1", "note": "(centres undefined)", "Potency": "inconclusive: 28.2 µM [inhibitor, single point]"}
{"molecule": "O=C(CCl)Nc1cccc(S(=O)(=O)NC2=NCCCCC2)c1", "activity change, negative = inhibition": "inactive: 37.1%"}
{"molecule": "Cc1ccc(-c2csc(N/N=C/c3ccco3)n2)c(C)c1", "Potency": "inconclusive: 28.2 µM [inhibitor, single point]"}
{"molecule": "C/C(=N\\N1CCN(C2c3ccccc3-c3ccccc32)CC1)c1ccco1", "Potency": "inconclusive: 35.5 µM [inhibitor, single point]"}
{"molecule": "CN(C)c1ccc(C(CNC(=O)c2ccccc2)c2c[nH]c3ccccc23)cc1", "note": "(centres undefined)", "Potency": "active: 39.8 µM"}
{"molecule": "Cc1sc2ncnc(N3CCN(Cc4ccccc4)CC3)c2c1-c1ccccc1", "Potency": "inconclusive: 70.8 µM [inhibitor, partial curve]"}
{"molecule": "COc1ccc(CN2CCC(C(=O)N3CCN(c4ccccc4F)CC3)CC2)cc1OC", "Potency": "inconclusive: 44.7 µM [inhibitor, partial curve]"}
{"molecule": "Cc1ccc(C)c(S(=O)(=O)N2CCN(CC(=O)N3CCc4ccccc4C3)CC2)c1", "Potency": "inconclusive: 28.2 µM [inhibitor, single point]"}
{"molecule": "CCCCc1nc2ccccc2c(NC(=O)CN2CCN(C)CC2)c1CCC", "Potency": "inconclusive: 15.8 µM [inhibitor, full curve]"}
{"molecule": "COc1ccc(C(=O)NCC(c2ccc(N(C)C)cc2)N2CCc3ccccc32)cc1", "note": "(centres undefined)", "Potency": "active: 10 µM"}
{"molecule": "CCc1cc2c(-c3ccccc3)cc(=O)oc2c2c1OCN(Cc1ccc(F)cc1)C2", "activity change, negative = inhibition": "inactive: 81.4%"}
{"molecule": "COc1ccccc1-c1ccc(/C=C2/C=C(CC(C)C)OC2=O)o1", "Potency": "inconclusive: 50.1 µM [inhibitor, single point]"}
{"molecule": "COc1ccc(Nc2c3c(nc4ccc(NC(=O)/C=C/c5cccc(OC)c5OC)cc24)CCCC3)cc1OC", "Potency": "inconclusive: 10 µM [inhibitor, full curve, poor fit]"}
{"molecule": "CCc1nc(SCC(=O)c2cccc([N+](=O)[O-])c2)n[nH]1", "Potency": "inconclusive: 89.1 µM [inhibitor, single point]"}
{"molecule": "COc1cc(C2NCC(c3ccc(Cl)cc3Cl)c3c2[nH]c2ccccc32)cc(OC)c1OC", "note": "(centres undefined)", "Potency": "inconclusive: 44.7 µM [inhibitor, partial curve]"}
{"molecule": "COc1ccc(-n2c(C)cc(C(=O)CSc3nnc(-c4cccs4)o3)c2C)cc1", "Potency": "inconclusive: 39.8 µM [inhibitor, partial curve, poor fit]"}
